Measurements as given in ChEMBL document CHEMBL4888484, “Replenishing the malaria drug discovery pipeline: Screening and hit evaluation of the MMV Hit Generation Library 1 (HGL1) against asexual blood stage Plasmodium falciparum ,using a nano luciferase reporter read-out” (2022).
The campaign covered roughly 150,000 compounds. About 540 (0.36%) showed an effect of 50% or more. The list shows a part of the results.

The compounds below were run on Plasmodium falciparum (assay: Primary screen in NF54 nanoGlo assay, in single point, at 2uM, 72h; a lower Z score goes with more inhibition). Conditions: timepoint 72 hour.
Format: functional, Erythrocyte
In the case of Cc1cc(C(=O)N2C[C@H]3COCC[C@@]3(O)[C@@H]3COCC[C@@H]32)ccc1Cl, the “% Inhibition” value is reported as 2% and the Z score is reported as -0.33. For CC(CCc1ccccc1)NC(=O)NC1CC(=O)N(c2cccc(F)c2)C1 (stereo not drawn), the “% Inhibition” value was 27% and the Z score was -3.48. In the case of CCOc1ccc(C(C)(C)C(=O)N[C@H]2CCC(=O)NC2(C)C)cc1OCC, the “% Inhibition” value is reported as 13% and the Z score is reported as -1.96. COc1cccc(NC(=O)Cn2ccc3ccc(-c4nnc(C)o4)cc32)c1 was tested, and the “% Inhibition” value was 7% and the Z score was -0.81. O=C(Cn1nc2ncccn2c1=O)N1CCCCCC1 was tested, and the “% Inhibition” value was -12% and the Z score was 1.55. With CCN(CC(=O)Nc1c(Cl)cccc1Cl)S(=O)(=O)N1CCOCC1 the “% Inhibition” value was 3% and the Z score was -0.52. In the case of Cc1ccoc1C(=O)NC1CCN(C2Cc3ccccc3C2O)CC1 (stereo not drawn), the “% Inhibition” value is reported as -8% and the Z score is reported as 1.03. O=C1CC2(CCCCC2)CC(=O)N1C[C@H](O)c1ccccc1 was tested, and the “% Inhibition” value was -4% and the Z score was 0.8. In the case of O=C(N[C@H]1CO[C@H]2[C@@H]1OC[C@@H]2Nc1nccc(-c2ccc(-c3ccccc3)cc2)n1)c1ccccc1, the “% Inhibition” value is reported as -17% and the Z score is reported as 2.68. In the case of Cc1c(CC(=O)N2CCNCC2)c2c(n1Cc1ccccc1F)CCCC2=O, the “% Inhibition” value is reported as -11% and the Z score is reported as 1.39. With O=C(Nc1ccccc1Cl)C1C2CCC3C(CCC21)C3(Cl)Cl (stereo not drawn) the “% Inhibition” value was -35% and the Z score was 4.16. For Cc1cc(C)cc(NC(=O)N2C[C@H]3CC[C@H]2C3)c1, the “% Inhibition” value was -2% and the Z score was 0.38. With CCc1ccc(C(=O)N2CCC3(CC2)OC[C@@H](C(=O)NC2CC2)N3C(=O)c2cccc(C)c2)cc1 the “% Inhibition” value was -5% and the Z score was 0.55. In the case of CC1CC(c2cccc(F)c2)N(C(=O)C(C)n2cncn2)C1 (stereo not drawn), the “% Inhibition” value is reported as -13% and the Z score is reported as 1.98. CC(OC(=O)c1cc(S(C)(=O)=O)ccc1Cl)C(=O)NC(C)(C#N)C(C)C (stereo not drawn) was tested, and the “% Inhibition” value was -3% and the Z score was 0.38. For COc1ccc(OC)c2c1cc(C(=O)N1CCN(Cc3ccccc3)CC1)n2C, the “% Inhibition” value was -12% and the Z score was 1.48. For CCC[C@H]1CN(C(=O)c2ccccc2CCc2cccc(OC)c2)C[C@@H]1N, the “% Inhibition” value was -5% and the Z score was 0.71. CC(C)CCC(=O)Nc1ccc(N(C)C)cn1 was tested, and the “% Inhibition” value was -5% and the Z score was 0.57. With Nc1ccc(OC(F)(F)C(F)F)c(N)c1 the “% Inhibition” value was -3% and the Z score was 0.41. CC[C@H](C)N(Cc1ccc(Cl)cc1)C(=O)CCc1cc(O)no1 was tested, and the “% Inhibition” value was -7% and the Z score was 0.92. CCOc1cc([C@H]2c3c(-c4ccccc4)nnc(O)c3Nc3nnnn32)ccc1O was tested, and the “% Inhibition” value was -15% and the Z score was 2.07. In the case of Nc1nc(N2CCN(Cc3ccc(F)cc3)CC2)cc([C@H]2C[C@@H](N)C2)n1, the “% Inhibition” value is reported as 16% and the Z score is reported as -2.35. With COc1nccc2c(NCc3cn(C(C)(C)C)nn3)cccc12 the “% Inhibition” value was 5% and the Z score was -1. With O=S(=O)(c1cccnc1)N1CCN(Cc2ccc3cn[nH]c3c2)CC1 the “% Inhibition” value was -1% and the Z score was 0.15. For CN(C)C[C@@H](c1ccccc1)N(C)C(=O)Nc1cccc(-c2nnn(C)n2)c1, the “% Inhibition” value was -1% and the Z score was 0.18. CC(C(=O)N1CCC(c2nnc[nH]2)C1)c1ccc(Cl)c(Cl)c1 (stereo not drawn) was tested, and the “% Inhibition” value was -10% and the Z score was 1.76. For CC1CCCCC1N(C)C(=O)Cn1cnnc1Nc1cccnc1 (stereo not drawn), the “% Inhibition” value was -11% and the Z score was 1.02. For CC(=O)Nc1nc(C(=O)NC[C@H](C)C(=O)OC(C)C)cs1, the “% Inhibition” value was 8% and the Z score was -0.96. In the case of CCc1noc(CCNC(=O)[C@H](C)n2cccn2)n1, the “% Inhibition” value is reported as 2% and the Z score is reported as -0.2. In the case of Cc1nc(CC(=O)Nc2ccc(F)c(F)c2)sc1C(=O)NCc1ccccc1, the “% Inhibition” value is reported as -12% and the Z score is reported as 1.55. C=CCC[C@@H](CN(C)Cc1cccnc1)Oc1ccc(C#N)nc1 was tested, and the “% Inhibition” value was -18% and the Z score was 1.82. In the case of O=C(CS(=O)(=O)Cc1cc(Cl)c2c(c1)OCCCO2)N1CCCCCCC1, the “% Inhibition” value is reported as -18% and the Z score is reported as 1.6. OC1CCC(Nc2cncc(-n3cccn3)n2)CC1 (stereo not drawn) was tested, and the “% Inhibition” value was 30% and the Z score was 0.04. For Cc1ccc(-c2nc(-c3cnccn3)no2)s1, the “% Inhibition” value was -5% and the Z score was 0.87. With O=C(Nc1ccccc1-n1ccnc1)c1cnccn1 the “% Inhibition” value was 36% and the Z score was -4.8. For CC(C)Oc1ccc(CN2CCc3nc(N4CCCC4)ncc3C2)cc1, the “% Inhibition” value was -5% and the Z score was 0.74. With Cc1cc(C(=O)NCc2ccnc(-c3cccnc3)c2)c(C)o1 the “% Inhibition” value was 2% and the Z score was -0.27. In the case of Cc1cnc(CN2CCC(C)[S+]([O-])CC2)nc1 (stereo not drawn), the “% Inhibition” value is reported as -9% and the Z score is reported as 1.01. For CCCc1cc(CN(C)C(=O)C[C@]2(c3cccc(C(F)(F)F)c3)CC(=O)N(CC)C2=O)n[nH]1, the “% Inhibition” value was 14% and the Z score was -1.8. COc1ccc(-c2oncc2-c2cc(OC)c3c(c2OC)OCO3)cc1 was tested, and the “% Inhibition” value was 13% and the Z score was -1.64. In the case of Cc1ncn(-c2ccc(NC(=O)C3(C)COC3)cc2)c1C, the “% Inhibition” value is reported as -8% and the Z score is reported as 1.16. In the case of Cc1cc(=O)c(C(=O)NCc2cccnc2)c(CC2CCCC2)n1CCCN1CCCC1=O, the “% Inhibition” value is reported as 9% and the Z score is reported as -1.26. In the case of Cc1cc(Br)cc(Cl)c1NS(C)(=O)=O, the “% Inhibition” value is reported as -11% and the Z score is reported as 1.55. With CC1(C)CC2(CO1)CC(NC(=O)c1cc3c(cn1)OCCC3)C2 (stereo not drawn) the “% Inhibition” value was -7% and the Z score was 1.02. N#Cc1ccc(OC(=O)c2cc(-c3ccccc3)on2)cc1 was tested, and the “% Inhibition” value was 16% and the Z score was -1.81. Cc1cc([C@@H]2CCCN2S(C)(=O)=O)on1 was tested, and the “% Inhibition” value was -6% and the Z score was 0.77. For OCCc1cnc2c(-c3nc([C@H]4CCOC4)n[nH]3)cnn2c1, the “% Inhibition” value was -3% and the Z score was 0.57. In the case of Cc1ccc(/N=C(\N)C(Cl)(Cl)Cl)c(C)c1, the “% Inhibition” value is reported as 37% and the Z score is reported as -4.76. With Cc1nc2c(C(=O)N3CC[C@@]4(C3)NC(=O)N(C)C4=O)cccc2o1 the “% Inhibition” value was 1% and the Z score was -0.24. C[C@H]1Cc2cccc3c(=O)c(C(=O)Nc4ccc(Oc5ccccc5)cc4)cn1c23 was tested, and the “% Inhibition” value was 9% and the Z score was -1.06. COc1cc(NC(=O)CC[C@H]2CCCN(C(=O)c3ocnc3C)C2)cc(OC)c1 was tested, and the “% Inhibition” value was -14% and the Z score was 1.96. In the case of Cc1nc(C)c(C)c(N2CCC(N3CCOCC3)CC2)n1, the “% Inhibition” value is reported as -13% and the Z score is reported as 1.8. In the case of COCCC(=O)NCCc1ncc(C)n1C1CCC1, the “% Inhibition” value is reported as -5% and the Z score is reported as 0.76. CC(C)OC[C@H](N)C(=O)Nc1cccnc1 was tested, and the “% Inhibition” value was -4% and the Z score was 0.41.
